Measurements from the supplement of paper PMC10037445.
Over roughly 2,900 compounds, “IRF Lucia reporter activity, fold change vs agonist alone” has its median near 0.9; the highest 2% begin near 2.8. Some of the results follow.

Columns and labels:
RAW-Dual [1] = experiment: IRF Lucia reporter activity, fold change vs agonist alone; cytotoxicity flag (confluency mask): not cytotoxic; higher = enhanced IRF activity
In short: (§1)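 Library stock was pin-tooled at 50 nL into 384-well plates of RAW-Dual macrophages (50,000 cells/well, DMEM), followed 1 h later by a PRR agonist, and the cells were kept at 37 °C, 5% CO2. Supernatant collected after 20 hours was read for IRF by QuantiLuc luminescence and for NF-κB by QuantiBlue absorbance at 620 nm. Reporter activity is fold change over agonist-alone wells, and a well counted as cytotoxic when its IncuCyte confluency was below 70% of agonist controls in both mask sets.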

RAW-Dual [2] = experiment: IRF Lucia reporter activity, fold change vs agonist alone; higher = enhanced IRF activity; conditions: agonist: MPLA (TLR4) […]
In short: as §1

RAW-Dual [3] = experiment: IRF Lucia reporter activity, fold change vs agonist alone; cytotoxicity flag (confluency mask): cytotoxic (confluency <70% of control); higher = enhanced IRF activity
In short: as §1

[4] = agonist: 3'3'-cGAMP (STING) 10 ug/mL
[5] = library stock concentration (final ~1000-fold dilution): 10 mM, cytotoxicity flag (confluency mask): not cytotoxic
[6] = library stock concentration (final ~1000-fold dilution): 10 mM, cytotoxicity flag (confluency mask): cytotoxic (confluency <70% of control)

Compound: CC(C)=CCC[C@](C)(O[C@@H]1O[C@H](CO)[C@@H](O)C(O)[C@H]1O)[C@H]1CC[C@]2(C)[C@H]1[C@H](O)CC1[C@@]3(C)CC[C@H](O)C(C)(C)[C@@H]3[C@@H](O[C@@H]3O[C@H](CO)[C@@H](O)[C@H](O)[C@H]3O[C@@H]3O[C@@H](C)[C@H](O)[C@@H](O)[C@H]3O)C[C@]12C (some centres not stated) (library stock concentration (final ~1000-fold dilution): 10 mM)
- IRF Lucia reporter activity (RAW-Dual [1]; [4]): 1.16
- IRF Lucia reporter activity (RAW-Dual [1]; agonist: LPS (TLR4) 0.1 ug/mL): 1.03

Compound: CO[C@H](c1c(NC(=O)Nc2cnc(-n3nccn3)c(Cl)c2)cnc2cc(Cl)nn12)[C@@H](C)OC (library stock concentration (final ~1000-fold dilution): 10 mM)
- IRF Lucia reporter activity (RAW-Dual [1]; [4]): 0.719
- IRF Lucia reporter activity (RAW-Dual [1]; agonist: LPS (TLR4) 0.1 ug/mL): 1.04

Compound: COc1cc2ccc(=O)oc2c(OC)c1O (library stock concentration (final ~1000-fold dilution): .1 mM)
- IRF Lucia reporter activity (RAW-Dual [1]; [4]): 1.07
- IRF Lucia reporter activity (RAW-Dual [1]; agonist: LPS (TLR4) 0.1 ug/mL): 0.255

Compound: CC(C)=CCc1cc(-c2coc3cc(O)ccc3c2=O)ccc1O (library stock concentration (final ~1000-fold dilution): 10 mM)
- IRF Lucia reporter activity (RAW-Dual [1]; [4]): 1.74
- IRF Lucia reporter activity (RAW-Dual [1]; agonist: LPS (TLR4) 0.1 ug/mL): 1.04

Compound: OCC1OC(c2ccc(Cl)c(Cc3ccc(OC4CCOC4)cc3)c2)C(O)C(O)C1O (configuration not stated) (library stock concentration (final ~1000-fold dilution): 10 mM)
- IRF Lucia reporter activity (RAW-Dual [1]; [4]): 1.1
- IRF Lucia reporter activity (RAW-Dual [1]; agonist: LPS (TLR4) 0.1 ug/mL): 1.29

Compound: CC1CNc2c(cccc2S(=O)(=O)NC(CCCNC(=N)N)C(=O)N2CCC(C)CC2C(=O)O)C1.O (configuration not stated)
- IRF Lucia reporter activity (RAW-Dual [2]; [5]): 0.985

Compound: CC1CNc2c(cccc2S(=O)(=O)NC(CCCNC(=N)N)C(=O)N2CCC(C)CC2C(=O)O)C1.O (configuration not stated) (library stock concentration (final ~1000-fold dilution): 10 mM)
- IRF Lucia reporter activity (RAW-Dual [1]; [4]): 0.961
- IRF Lucia reporter activity (RAW-Dual [1]; agonist: LPS (TLR4) 0.1 ug/mL): 1.23

Compound: CN1C2CCCC1CC(NC(=O)c1nn(C)c3ccccc13)C2 (configuration not stated) (library stock concentration (final ~1000-fold dilution): 10 mM)
- IRF Lucia reporter activity (RAW-Dual [1]; [4]): 0.985
- IRF Lucia reporter activity (RAW-Dual [1]; agonist: LPS (TLR4) 0.1 ug/mL): 1.27

Compound: CN1C2CCCC1CC(NC(=O)c1nn(C)c3ccccc13)C2 (configuration not stated)
- IRF Lucia reporter activity (RAW-Dual [2]; [5]): 1.01

Compound: CCCCCCCCc1ccc(CCC(N)(CO)CO)cc1.Cl (library stock concentration (final ~1000-fold dilution): 10 mM)
- IRF Lucia reporter activity (RAW-Dual [3]; [4]): 0.137
- IRF Lucia reporter activity (RAW-Dual [3]; agonist: LPS (TLR4) 0.1 ug/mL): 0.402

Compound: CCCCCCCCc1ccc(CCC(N)(CO)CO)cc1.Cl
- IRF Lucia reporter activity (RAW-Dual [2]; [6]): 0.745

Compound: O=C(Cc1cccc(OC(F)(F)F)c1)Nc1ccc(CCCCc2nnc(NC(=O)Cc3ccccn3)s2)nn1 (library stock concentration (final ~1000-fold dilution): 10 mM)
- IRF Lucia reporter activity (RAW-Dual [1]; [4]): 0.699
- IRF Lucia reporter activity (RAW-Dual [1]; agonist: LPS (TLR4) 0.1 ug/mL): 1.33

Compound: CCN(CC)CC#CCOC(=O)C(O)(c1ccccc1)C1CCCCC1 (configuration not stated)
- IRF Lucia reporter activity (RAW-Dual [2]; [5]): 1

Compound: CCN(CC)CC#CCOC(=O)C(O)(c1ccccc1)C1CCCCC1 (configuration not stated) (library stock concentration (final ~1000-fold dilution): 10 mM)
- IRF Lucia reporter activity (RAW-Dual [1]; [4]): 1.08
- IRF Lucia reporter activity (RAW-Dual [1]; agonist: LPS (TLR4) 0.1 ug/mL): 2.22

Compound: CC(C)Nc1cccnc1N1CCN(C(=O)c2cc3cc(NS(C)(=O)=O)ccc3[nH]2)CC1.CS(=O)(=O)O
- IRF Lucia reporter activity (RAW-Dual [2]; [5]): 0.95

Compound: CC(C)Nc1cccnc1N1CCN(C(=O)c2cc3cc(NS(C)(=O)=O)ccc3[nH]2)CC1.CS(=O)(=O)O (library stock concentration (final ~1000-fold dilution): 10 mM)
- IRF Lucia reporter activity (RAW-Dual [1]; [4]): 0.844
- IRF Lucia reporter activity (RAW-Dual [1]; agonist: LPS (TLR4) 0.1 ug/mL): 0.728

Compound: CN(c1ncccc1CNc1nc(Nc2ccc3c(c2)CC(=O)N3)ncc1C(F)(F)F)S(C)(=O)=O.Cl
- IRF Lucia reporter activity (RAW-Dual [2]; [6]): 0.0257

Compound: CN(c1ncccc1CNc1nc(Nc2ccc3c(c2)CC(=O)N3)ncc1C(F)(F)F)S(C)(=O)=O.Cl (library stock concentration (final ~1000-fold dilution): 10 mM)
- IRF Lucia reporter activity (RAW-Dual [3]; [4]): 0.0132
- IRF Lucia reporter activity (RAW-Dual [3]; agonist: LPS (TLR4) 0.1 ug/mL): 0.0259

Compound: c1ccc2c(-c3nccs3)c[nH]c2c1 (library stock concentration (final ~1000-fold dilution): 10 mM)
- IRF Lucia reporter activity (RAW-Dual [1]; [4]): 0.706
- IRF Lucia reporter activity (RAW-Dual [1]; agonist: LPS (TLR4) 0.1 ug/mL): 1.19

Compound: CCN(Cc1ccncc1)C(=O)C(CO)c1ccccc1 (configuration not stated) (library stock concentration (final ~1000-fold dilution): 10 mM)
- IRF Lucia reporter activity (RAW-Dual [1]; [4]): 1.04
- IRF Lucia reporter activity (RAW-Dual [1]; agonist: LPS (TLR4) 0.1 ug/mL): 0.851

Compound: CCN(Cc1ccncc1)C(=O)C(CO)c1ccccc1 (configuration not stated)
- IRF Lucia reporter activity (RAW-Dual [2]; [5]): 0.932

Compound: CNCCC(Oc1cccc2ccccc12)c1cccs1.Cl (configuration not stated) (library stock concentration (final ~1000-fold dilution): 10 mM)
- IRF Lucia reporter activity (RAW-Dual [3]; [4]): 0.792
- IRF Lucia reporter activity (RAW-Dual [3]; agonist: LPS (TLR4) 0.1 ug/mL): 1.18

Compound: CNCCC(Oc1cccc2ccccc12)c1cccs1.Cl (configuration not stated)
- IRF Lucia reporter activity (RAW-Dual [2]; [6]): 1.45

Compound: O=C(O)c1cc(O)c2c(c1)C(C1c3cc(C(=O)O)cc(O)c3C(=O)c3c(OC4OC(CO)C(O)C(O)C4O)cccc31)c1cccc(OC3OC(CO)C(O)C(O)C3O)c1C2=O (configuration not stated)
- IRF Lucia reporter activity (RAW-Dual [2]; library stock concentration (final ~1000-fold dilution): 2 mM, cytotoxicity flag (confluency mask): not cytotoxic): 1.11
- IRF Lucia reporter activity (RAW-Dual [2]; [5]): 1.03

Compound: O=C(O)c1cc(O)c2c(c1)C(C1c3cc(C(=O)O)cc(O)c3C(=O)c3c(OC4OC(CO)C(O)C(O)C4O)cccc31)c1cccc(OC3OC(CO)C(O)C(O)C3O)c1C2=O (configuration not stated) (library stock concentration (final ~1000-fold dilution): 2 mM)
- IRF Lucia reporter activity (RAW-Dual [1]; [4]): 0.773
- IRF Lucia reporter activity (RAW-Dual [1]; agonist: LPS (TLR4) 0.1 ug/mL): 0.988
